# Publication PMC5892938
# Some of the results follow. The exact form of the protein is not confirmed.
# Target: GST-SBP-ILF3 (Homo sapiens) (UniProt Q12906)
# Test: targeted RNA Bind-n-Seq
# Settings: RBNS binding buffer: 25 mM Tris pH 7.5, 150 mM KCl, 3 mM MgCl2, 0.1% Tween, 0.5 mg/mL BSA, 1 mM DTT; 27 nM protein, 750 pM RNA pool; temperature not stated; high values mean tight binding; sequences stand for … in GGGUAAAAGCGAGGUGAA…CGGGACAAGUAUUAUGGG
row,Sequence,binding signal (log2 fold change)
1,GGUGGUGGUGUUGGCUCCUAACACCGCCGC [gtspaired],-0.84
2,UUUUUUUUUUGAGAGGGGCUCCUUCUCCAG [tttttgagapaired],0.375
3,UUUUUUUUUUGAGAGCGUGACGCUCUCCGG [tttttgagapaired],0.0991
4,UUUUUUUUUUGAGAGCGGGGCGUUCUCCAG [tttttgagapaired],0.613
5,UUUUUUUUUUGAGAUGGCUACCAUCUCCUA [tttttgagapaired],0.319
6,UUUUUUUUUUGAGACCGAACCGGUCUUCUA [tttttgagapaired],0.326
7,UUUUUUUUUUGAGACGGUAACCGUCUUCUG [tttttgagapaired],0.397
8,UUUUUUUUUUGAGAGCGGUGCGUUCUCCUA [tttttgagapaired],0.285
9,GUGUGUGGUGUUGGUGCCUAACACCGCACG [gtspaired],-0.519
10,UUUUUUUUUUGAGAGUGAUACACUCUCCUG [tttttgagapaired],0.0839
11,UUUUUUUUUUGAGAUGGUGGCUAUCUCCUA [tttttgagapaired],0.86
12,GGUUGGUGUGUUGGAGUCUAACACAUCAAC [gtspaired],-0.617
13,UUUUUUUUUUGAGACCGUGUCGGUCUUCUG [tttttgagapaired],0.729
14,GGUUGGUGUGUUGGCGCCUAACACAUCAGC [gtspaired],-0.691
15,GGUGUGUGUGUUGGCCUCUAACACACGCGC [gtspaired],-0.92
16,GUUGUGUGUGUUGGACCCUAACACACACAG [gtspaired],-0.367
17,UUUUUUUUUUGAGAGCGGAACGUUCUUCUA [tttttgagapaired],0.208
18,UUUUUUUUUUGAGACGGUUGCCGUUUCCAG [tttttgagapaired],0.594
19,UUUUUUUUUUGAGAGGGGCCCCCUCUUCUG [tttttgagapaired],0.949
20,UUUUUUUUUUGAGACCGGGACGGUCUCCAG [tttttgagapaired],0.42
21,GGUGUUGGUGUUGGAUUCUAACACCGAUAC [gtspaired],-0.549
22,GUGGUGUGUGUUGGCACCUAACACAUACCG [gtspaired],-0.549

row,Sequence,binding signal (log2 fold change)
1,UUUUUUUUUUGAGAGUGGCGCAUUCUCCAG [tttttgagapaired],0.581
2,GUGGUUGGUGUUGGUAUCUAACACCGACCG [gtspaired],-0.601
3,UUUUUUUUUUGAGAGCGAUGCGCUCUCCUG [tttttgagapaired],0.226
4,GUGGUUGGUGUUGGCGCCUAACACCAAUCA [gtspaired],0.00792
5,UUUUUUUUUUGAGAUGGUAUCUAUCUCCAG [tttttgagapaired],0.047
6,GUGUUGUGUGUUGGUACCUAACACACAGCG [gtspaired],-0.587
7,GGUGUUGGUGUUGGUCUCUAACACCAGCGC [gtspaired],-0.385
8,UUUUUUUUUUGAGAUCGAGUCGAUCUUCUA [tttttgagapaired],-0.0664
9,UUUUUUUUUUGAGAGCGGGUCGUUCUCCUA [tttttgagapaired],0.233
10,UUUUUUUUUUGAGACGGCGACCGUUUCCUA [tttttgagapaired],0.639
11,UUUUUUUUUUGAGAGCGUGGCGUUCUCCGG [tttttgagapaired],0.512
12,UUCUUCUCUCCUCCUGGGGAGGGGGGAAGA [ctspaired],-0.247
13,UUUUUUUUUUGAGAUGGACACUAUCUCCGG [tttttgagapaired],0.406
14,UUUUUUUUUUGAGAUCGAGGCGAUCUUCUA [tttttgagapaired],0.181
15,UUUUUUUUUUGAGAGGGCGUCCCUCUCCUA [tttttgagapaired],0.914
16,UUUUUUUUUUGAGACUGCAACAGUCUCCAG [tttttgagapaired],0.427
17,UUUUUUUUUUGAGACUGCUCCAGUCUCCAG [tttttgagapaired],0.881
18,GUGGUGUGUGUUGGUAUCUAACACAUACCA [gtspaired],-0.631
19,UUUUUUUUUUGAGAGCGGAGCGUUCUCCUA [tttttgagapaired],0.783
20,GUGUGGUGUGUUGGACUCUAACACACCGCG [gtspaired],-0.487
21,UUUUUUUUUUGAGAGGGCUGCCCUCUCCUG [tttttgagapaired],1.32
22,UUUUUUUUUUGAGAUCGACGCGAUCUCCAG [tttttgagapaired],0.563

row,Sequence,binding signal (log2 fold change)
1,GGUGUGUGUGUUGGCAUCUAACACAUAUAC [gtspaired],-0.566
2,UUUUUUUUUUGAGAGGGAAACCCUCUCCUG [tttttgagapaired],-0.0843
3,UUUUUUUUUUGAGACUGUAUCAGUCUCCGG [tttttgagapaired],0.219
4,GUGGUUGGUGUUGGUCCCUAACACCGACUA [gtspaired],-0.538
5,UUUUUUUUUUGAGACCGUCACGGUCUUCUA [tttttgagapaired],0.397
6,GUGUGUGGUGUUGGCAUCUAACACCGCACG [gtspaired],-0.776
7,UUCUCCUCUCCUCCUGGGGAGGGGGGGAGA [ctspaired],-0.287
8,UUUUUUUUUUGAGAUGGGGGCCAUCUUCUA [tttttgagapaired],0.605
9,GUUGUGUGUGUUGGCACCUAACACACGCAA [gtspaired],-0.451
10,UUUUUUUUUUGAGACCGCGGCGGUCUCCGG [tttttgagapaired],0.879
11,UUUUUUUUUUGAGACGGUUCCUGUCUCCUA [tttttgagapaired],0.567
12,UUUUUUUUUUGAGAGGGUCUCCCUCUCCUA [tttttgagapaired],0.716
13,UUUUUUUUUUGAGAGCGGGACGCUCUUCUG [tttttgagapaired],0.261
14,UUUUUUUUUUGAGACUGGGUCAGUCUCCUG [tttttgagapaired],0.409
15,GUUGGUGGUGUUGGCUCCUAACACCAUCAA [gtspaired],-0.235
16,GGUGGUUGUGUUGGACUCUAACACAGCCGC [gtspaired],-0.395
17,GUGUGUUGUGUUGGCAUCUAACACAGCACG [gtspaired],-0.697
18,UUUUUUUUUUGAGAUGGGUACCAUCUUCUG [tttttgagapaired],0.444
19,GGUUGUUGUGUUGGUGCCUAACACAGCAAC [gtspaired],-0.313
20,UUUUUUUUUUGAGACUGACACAGUCUCCGG [tttttgagapaired],0.284
21,UUUUUUUUUUGAGAGUGAGGCACUCUCCUA [tttttgagapaired],0.0839
22,GUGGUUGGUGUUGGCCUCUAACACCAGCCG [gtspaired],-0.466
